Laboratory results published in PubChem BioAssay (Tox21).
Where “and” joins values, the source holds several entries; their conditions need not be identical. Identical values can stand only once. The inconclusive results got no clear call from the source; some entries with a clear call stand among them for comparison. Where the call is inconclusive, the potency comes from a doubtful curve fit. Calls of active or inactive are those of the source. Unless noted, calls follow the shape of the dose curve; as a rule, active = well fitted cell-killing curve with a large enough effect in the repeat runs; inconclusive = weak or mixed curves, or effect the other way; inactive = no such curve, though single readings can be large or run the other way.

Assay: qHTS assay for small molecule agonists of the antioxidant response element (ARE) signaling pathway (AID 743202; active = well fitted activation curve with a large enough effect in the signal ratio in the repeat runs, not every such curve was filed as active; inconclusive = weak or mixed curves, or effect the other way; inactive = no such curve, though single readings can be large or run the other way; the % refers to the signal ratio)
Conditions: HepG2 ARE-bla reporter, beta-lactamase FRET, 16 h; activation: at 73.3 µM (top of the series) unless noted
How it was run: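 Quantitative high-throughput format in HepG2 cells bearing an integrated ARE-beta-lactamase reporter. Compound exposure lasted 16 h at 37 C, and fluorescence was read 2 h after adding LiveBLAzer B/G substrate at room temperature.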
% is scaled to controls: 0 for no effect and ±100 for the full control effect; potency is read from the fitted curve at half-maximal effect; tags tell the direction and shape of the fitted curve or compound fluorescence and quenching.

Row | SMILES | Potency | activation
1 | N#Cc1sc2c(=O)c3ccccc3c(=O)c=2sc1C#N | inconclusive: 12.2 µM [falling, full curve] | –
2 | Cc1ccc(N)c(N)c1 | active: 8.66 µM and active: 10.9 µM | –
3 | CCC(C)Br (stereo not drawn) | inactive | –
4 | CC(C)[C@@H](Nc1ccc(C(F)(F)F)cc1Cl)C(=O)OC(C#N)c1cccc(Oc2ccccc2)c1 (stereo partly drawn) | inconclusive: 66.1 µM | –
5 | O=C(NC(=O)c1c(F)cccc1F)Nc1ccc(Oc2ccc(C(F)(F)F)cc2Cl)cc1F | – | inconclusive: 1.49%
6 | CCCCC(CC)COC(=O)Cl (stereo not drawn) | – | inconclusive: -2.12%
7 | c1ccc2c(c1)[nH]c1cnccc12 | inconclusive: 15.4 µM [falling, partial curve, poor fit] | –
8 | c1ccc(-c2ccccc2)cc1 | – | inconclusive: -14.1%

Assay: qHTS assay for small molecule activators of the heat shock response signaling pathway - cell viability counter screen (AID 743209); also: nearly all actives have a fitted effect of over 50% in size
Conditions: HSE-bla HeLa viability, CellTiter-Glo luminescence, 5 h; activity change, negative = cytotoxicity: at 62.6 µM (top of the series) unless noted
How it was run: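 CellSensor HSE-bla HeLa cells, plated overnight at 37 C/5% CO2, were exposed to compounds in DMSO for 5 h at 37 C. Viability was then read in the same wells by CellTiter-Glo luminescence after 30 min at room temperature.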

Row | SMILES | Potency
9 | [O]=[Cr](=[O])([OH])[O][Cr](=[O])(=[O])[OH] | active: 39.3 µM and active: 43.6 µM
10 | C[C@@H]1O[C@@H](O[C@@H]2C=C3CC[C@@H]4[C@H](CC[C@]5(C)[C@@H](c6ccc(=O)oc6)CC[C@]45O)[C@@]3(C)CC2)[C@H](O)[C@H](O)[C@H]1O | active: 6 nM
11 | O=C(O)C(F)(F)C(F)(F)C(F)(F)C(F)(F)C(F)(F)C(F)(F)C(F)(F)F | inconclusive: 54800 nM [rising, partial curve, poor fit]
12 | OCCN(CCO)CCO | inactive
13 | CCC(C)Br (stereo not drawn) | inconclusive: 20.7 nM [rising, full curve, poor fit]

Assay: qHTS assay for small molecule activators of the heat shock response signaling pathway (AID 743210; active = well fitted activation curve with a large enough effect in the signal ratio in the repeat runs, with a control signal flat, not every such curve was filed as active; inconclusive = weak or mixed curves; the % refers to the signal ratio;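 as to activation: HeLa cells with beta-lactamase reporter driven by heat shock elements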)
Conditions: HeLa HSE-bla reporter, beta-lactamase ratio, 5 h; activation: at 62.6 µM (top of the series) unless noted
How it was run: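 HeLa HSE-bla cells, overnight plating; cpd in DMSO 5 h, 37 C; LiveBLAzer B/G FRET substrate 2.5 h RT; fluorescence intensity read.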

Row | SMILES | Potency
14 | Cc1c(COC(=O)[C@@H]2[C@H](/C=C(\Cl)C(F)(F)F)C2(C)C)cccc1-c1ccccc1 | inconclusive: 48.9 µM [activator, partial curve, poor fit]
15 | CN(C)[C@@H]1C(=O)C(C(N)=O)=C(O)[C@@]2(O)C(=O)C3=C(O)c4c(O)ccc(Cl)c4[C@@](C)(O)[C@H]3C[C@@H]12 | inconclusive: 42.9 µM [fluorescent]
16 | COc1ccc(/C(=C/C(=O)N2CCOCC2)c2ccc(Cl)cc2)cc1OC | inactive
17 | CCN1CCC2(CC1)COc1cc3c(cc12)N(C(=O)c1ccc(-c2ccc(-c4nnc(C)o4)cc2C)cc1)CC3 | inconclusive: 53.7 µM
18 | CC(C)C1CCC(Cc2ccc(Cl)cc2)C1(O)Cn1cncn1 (stereo not drawn) | inconclusive: 57.6 µM
19 | Cn1cc(C2=C(c3cn(C4CCN(Cc5ccccn5)CC4)c4ccccc34)C(=O)NC2=O)c2ccccc21 | inconclusive: 28.2 µM
20 | CC(C)=CC1C(C(=O)OCc2coc(Cc3ccccc3)c2)C1(C)C (stereo not drawn) | inconclusive: 58.3 µM and inconclusive: 57 µM
21 | CN1C(=O)[C@@H](NC(=O)c2cc3ccccc3[nH]2)N=C(c2ccccc2)c2ccccc21 | inconclusive: 29.8 µM [falling, partial curve]
22 | N#Cc1c2ccccc2cc2ccccc12 | inconclusive: 40.3 µM [fluorescent]
23 | O=C(N[C@H]1N=C(c2ccccc2F)c2cccc3c2N(CC3)C1=O)c1cc2ccccc2[nH]1 | inconclusive: 26.6 µM [falling, partial curve]
24 | c1ccc2cc3c(cc2c1)-c1cccc2cccc-3c12 | active: 5.21 µM
25 | ClC1=C(Cl)[C@]2(Cl)[C@@H]3[C@H]4C[C@H]([C@@H]5O[C@H]45)[C@@H]3[C@@]1(Cl)C2(Cl)Cl | active: 51.8 µM
26 | CC1CCCC1 | inconclusive: 35.4 µM
27 | CC(=O)/C=C/c1ccccc1 | inconclusive: 49 µM [activator, partial curve, poor fit] and inconclusive: 58.2 µM [activator]
28 | CC(C)C(Nc1ccc(C(F)(F)F)cc1Cl)C(=O)OC(C#N)c1cccc(Oc2ccccc2)c1 (stereo not drawn) | inconclusive: 23.8 µM
29 | CC1(C)[C@H](C(=O)O[C@H](C#N)c2cccc(Oc3ccccc3)c2)[C@@H]1/C=C(\Cl)C(F)(F)F | inconclusive: 43.6 µM
30 | c1ccc2c(c1)cc1ccc3cccc4ccc2c1c34 | inconclusive: 53.9 µM [fluorescent]
31 | CN(C)CCc1c[nH]c2ccc(O)cc12 | active: 59.7 µM
32 | CC(C)[C@H](C(=O)OC(C#N)c1cccc(Oc2ccccc2)c1)c1ccc(OC(F)F)cc1 (stereo partly drawn) | inconclusive: 49 µM [rising, partial curve]
33 | CCOP(=O)(OCC)O/C(=C/Cl)c1ccc(Cl)cc1Cl | inactive
